Data published in PMC5893419 (Bioorganic & medicinal chemistry letters, 2018).

Test system: VRSA HIP14300
Test: microbe, parasite or virus in culture
Conditions: Staphylococcus aureus, 20 h

CN[C@H](CC(C)C)C(=O)N[C@H]1C(=O)N[C@@H](CC(N)=O)C(=O)N[C@H]2C(=O)N[C@H]3C(=O)N[C@H](C(=O)N[C@H](C(=O)O)c4cc(O)cc(O)c4-c4cc3ccc4O)[C@H](O)c3ccc(c(Cl)c3)Oc3cc2cc(c3O[C@@H]2O[C@H](CO)[C@@H](O)[C@H](O)[C@H]2O[C@H]2C[C@](C)(N)[C@H](O)[C@H](C)O2)Oc2ccc(cc2Cl)[C@H]1O [vancomycin]
MIC: > 128 µg/mL
